One experiment has as its target T1, HA-HURP 725A (UniProt Q15398).
T1 sequence: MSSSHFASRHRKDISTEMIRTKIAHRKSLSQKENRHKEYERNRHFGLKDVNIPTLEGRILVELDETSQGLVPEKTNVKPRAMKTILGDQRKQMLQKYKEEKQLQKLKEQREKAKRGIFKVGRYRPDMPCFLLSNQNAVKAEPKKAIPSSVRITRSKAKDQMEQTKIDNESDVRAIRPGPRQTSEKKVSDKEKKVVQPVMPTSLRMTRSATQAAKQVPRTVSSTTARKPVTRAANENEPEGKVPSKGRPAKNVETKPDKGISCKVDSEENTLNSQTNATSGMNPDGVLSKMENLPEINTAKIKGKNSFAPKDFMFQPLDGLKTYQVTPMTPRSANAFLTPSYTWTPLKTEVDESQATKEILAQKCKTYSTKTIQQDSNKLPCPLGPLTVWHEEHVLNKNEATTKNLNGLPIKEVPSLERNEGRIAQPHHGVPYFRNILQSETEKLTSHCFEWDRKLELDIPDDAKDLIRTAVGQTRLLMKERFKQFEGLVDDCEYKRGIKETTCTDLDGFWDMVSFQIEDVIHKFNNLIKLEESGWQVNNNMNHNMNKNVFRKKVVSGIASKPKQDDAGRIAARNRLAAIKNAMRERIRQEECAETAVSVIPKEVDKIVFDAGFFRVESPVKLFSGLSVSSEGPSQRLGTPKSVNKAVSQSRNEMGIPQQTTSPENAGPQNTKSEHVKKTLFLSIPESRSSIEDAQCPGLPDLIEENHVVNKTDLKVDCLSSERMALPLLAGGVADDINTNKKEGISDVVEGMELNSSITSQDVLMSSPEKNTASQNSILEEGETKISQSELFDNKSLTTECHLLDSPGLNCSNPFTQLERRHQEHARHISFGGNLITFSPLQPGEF
Briefly: co-IP; 293T cells transfected with GFP-TRIP11 and versions of HA-HURP; precipitating antibody not stated (Fig. 5A).

Sequences of proteins named here, by UniProt entry; tags and fusion partners are left off. A change or cut given only in a name is not applied to a line headed by its entry.
UniProt Q15643: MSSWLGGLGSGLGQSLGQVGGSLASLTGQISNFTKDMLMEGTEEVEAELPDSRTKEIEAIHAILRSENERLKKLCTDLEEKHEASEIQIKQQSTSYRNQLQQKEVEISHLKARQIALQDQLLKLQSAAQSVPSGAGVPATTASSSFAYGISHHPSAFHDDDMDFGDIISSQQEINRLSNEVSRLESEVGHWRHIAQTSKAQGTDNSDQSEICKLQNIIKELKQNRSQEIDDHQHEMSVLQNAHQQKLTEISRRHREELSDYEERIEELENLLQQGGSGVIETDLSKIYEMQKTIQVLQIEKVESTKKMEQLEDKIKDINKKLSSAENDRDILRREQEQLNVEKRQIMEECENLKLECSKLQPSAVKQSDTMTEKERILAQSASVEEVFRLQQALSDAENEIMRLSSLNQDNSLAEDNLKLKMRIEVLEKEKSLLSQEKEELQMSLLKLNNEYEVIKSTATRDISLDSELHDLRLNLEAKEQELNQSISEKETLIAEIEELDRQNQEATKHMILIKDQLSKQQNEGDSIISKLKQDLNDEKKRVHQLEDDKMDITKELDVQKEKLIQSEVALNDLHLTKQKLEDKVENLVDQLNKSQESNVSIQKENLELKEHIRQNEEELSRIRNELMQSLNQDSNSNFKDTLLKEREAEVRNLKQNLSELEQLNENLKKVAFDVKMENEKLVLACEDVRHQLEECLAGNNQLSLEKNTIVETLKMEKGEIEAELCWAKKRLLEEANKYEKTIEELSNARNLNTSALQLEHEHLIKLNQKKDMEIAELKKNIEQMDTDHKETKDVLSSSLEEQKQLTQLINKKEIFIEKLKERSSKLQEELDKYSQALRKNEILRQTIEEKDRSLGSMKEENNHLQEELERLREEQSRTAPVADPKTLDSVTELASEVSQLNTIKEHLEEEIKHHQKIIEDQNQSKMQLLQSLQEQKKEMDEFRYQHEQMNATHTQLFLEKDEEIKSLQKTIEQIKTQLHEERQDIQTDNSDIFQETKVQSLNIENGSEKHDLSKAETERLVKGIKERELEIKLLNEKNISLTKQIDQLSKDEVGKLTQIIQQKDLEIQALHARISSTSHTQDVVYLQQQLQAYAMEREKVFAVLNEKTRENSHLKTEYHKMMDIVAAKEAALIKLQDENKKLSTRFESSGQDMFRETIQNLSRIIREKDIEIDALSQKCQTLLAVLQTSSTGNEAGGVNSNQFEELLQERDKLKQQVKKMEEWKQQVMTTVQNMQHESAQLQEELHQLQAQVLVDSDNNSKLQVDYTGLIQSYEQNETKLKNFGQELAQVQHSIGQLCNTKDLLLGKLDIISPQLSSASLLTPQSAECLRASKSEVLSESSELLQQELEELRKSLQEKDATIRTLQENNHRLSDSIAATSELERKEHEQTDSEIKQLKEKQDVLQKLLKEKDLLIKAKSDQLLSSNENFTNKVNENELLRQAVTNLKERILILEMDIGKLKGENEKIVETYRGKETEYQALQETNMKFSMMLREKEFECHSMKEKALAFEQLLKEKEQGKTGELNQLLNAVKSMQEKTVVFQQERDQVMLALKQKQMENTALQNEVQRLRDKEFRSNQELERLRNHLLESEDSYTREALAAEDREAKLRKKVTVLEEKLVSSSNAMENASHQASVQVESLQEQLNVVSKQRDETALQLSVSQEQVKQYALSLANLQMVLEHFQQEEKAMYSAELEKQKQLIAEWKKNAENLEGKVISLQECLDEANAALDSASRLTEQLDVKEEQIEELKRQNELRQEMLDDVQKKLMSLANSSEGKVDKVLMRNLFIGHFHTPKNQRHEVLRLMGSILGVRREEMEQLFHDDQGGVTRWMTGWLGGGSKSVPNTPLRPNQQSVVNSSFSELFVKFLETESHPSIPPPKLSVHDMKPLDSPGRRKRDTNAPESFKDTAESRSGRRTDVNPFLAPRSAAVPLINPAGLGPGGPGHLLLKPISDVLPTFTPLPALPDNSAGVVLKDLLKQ
UniProt P84077: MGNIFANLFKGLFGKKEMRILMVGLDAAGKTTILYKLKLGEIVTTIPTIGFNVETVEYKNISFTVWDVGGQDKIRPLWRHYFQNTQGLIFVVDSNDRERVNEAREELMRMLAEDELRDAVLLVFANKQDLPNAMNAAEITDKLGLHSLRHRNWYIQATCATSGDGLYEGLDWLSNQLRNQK

The target in the next experiment is T2, HA-HURP 725E (UniProt Q15398).
T2 sequence: T1 sequence with A725E
Described as above.

In another experiment the target is T3, HA tagged HURP 1–300 (UniProt Q15398).
T3 sequence: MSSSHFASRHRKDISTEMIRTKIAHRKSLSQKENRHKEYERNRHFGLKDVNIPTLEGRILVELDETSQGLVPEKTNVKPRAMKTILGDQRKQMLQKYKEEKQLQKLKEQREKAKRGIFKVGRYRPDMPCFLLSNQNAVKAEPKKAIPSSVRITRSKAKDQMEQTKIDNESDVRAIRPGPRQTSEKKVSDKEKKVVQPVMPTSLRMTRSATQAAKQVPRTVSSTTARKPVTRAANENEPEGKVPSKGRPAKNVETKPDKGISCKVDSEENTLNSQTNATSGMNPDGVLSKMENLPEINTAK
The experiment can be described thus: co-IP; 293 cells transfected with GFP-TRIP11 and HA tagged HURP FL, 1-300 or 300-846; immunoprecipitation with antibodies against HA (Fig. 5E).

Experiment [1] deals with T4, HURP p725 (human (endogenous in HeLa)) (UniProt Q15398).
T4 sequence (chain, phosphoserine at 725): T1 sequence with A725S
Briefly: co-IP; HA-tagged ARF1 WT or T31N with HURP p725; cells and precipitating antibody not stated (Fig. 7E).

Binding data for 3 substances are collected here from PMC10294536.

Residue numbers refer to the chain shown, from its start. No constants are given. Whether binding was seen depends on the method and setting. Binding seen in cells or lysates may run through a third protein. Some entries that bind do so weakly or less than the wild type. For some assays here: Sequences can lack the tags named with a protein.

Consider GFP-TRIP11 (from UniProt Q15643 1-1979), for which the binding result is recorded as “no binding” with HA-HURP 725A, “binds” with HA-HURP 725E and “binds” with HA tagged HURP 1–300. With HA-ARF1 WT (from UniProt P84077 1-181), the binding entry in experiment [1] is recorded as “no binding”. Take “HA-ARF1 T31N (from UniProt P84077 1-181)”: in experiment [1], the binding entry is “no binding”.
